The results in this text go back to publication PMC10166177.

The target in this assay is T1, Flag-tagged full-length RNPS1 (UniProt Q99M28).
T1 sequence: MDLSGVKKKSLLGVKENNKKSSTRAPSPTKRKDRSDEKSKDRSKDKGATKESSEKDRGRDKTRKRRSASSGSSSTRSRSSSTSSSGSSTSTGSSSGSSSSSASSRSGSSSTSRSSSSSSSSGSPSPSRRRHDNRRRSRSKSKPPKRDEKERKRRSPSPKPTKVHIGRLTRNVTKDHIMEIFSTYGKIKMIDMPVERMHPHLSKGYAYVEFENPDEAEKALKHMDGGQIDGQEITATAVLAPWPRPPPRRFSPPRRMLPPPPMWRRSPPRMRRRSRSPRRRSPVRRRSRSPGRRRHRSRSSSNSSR
Description: co-IP; HEK293 cells (legend; the text says N2a cells) expressing HA-SNIP1 and/or Flag-tagged full-length or domain-truncated RNPS1.

Results are given in words; binding and its absence hold for the method and conditions named. Binding seen in cells or lysates may run through a third protein. Some entries that bind do so weakly or less than the wild type. Sequences can lack the tags named with a protein.

B1: HA-SNIP1 (protein, UniProt Q8BIZ6 1-383)
chain: MKAGKSERERSGRRRHRSGDALTTVVVKQERLSPEPVAHRRPDAPAASLSPPAAEPGHSGHRGSRARSPAKKKSKSSGRRSKSPRTKRSQSPHYPMVKVKQEREDHPRRGREDRQHREPSEQEHRRARNSERDRHRGHSRQGRSSDERPVSGQDRDRDSQNLQAQEEERDFHNARRREHRQQNESAGSEAQEVIPRPAGNRSKEVPVKEKPSFELSGALLEDTNTFRGVVIKYSEPPEARIPKKRWRLYPFKNDEVLPVMYIHRQSAYLLGRHRRIADIPIDHPSCSKQHAVFQYRLVEYTRADGTVGRRVKPYIIDLGSGNGTFLNNKRIEPQRYYELKEKDVLKFGFSSREYVLLHESSDTSELDRKEDEDDEEEEMVSDS
For the molecule B1, the binding result is listed as “binds”.
